In the supplement of paper PMC11417369:
Some of the results follow.

system: PF3D7_0420300 AP2 domain 1 (GST-tagged); experiment: gcPBM binding intensity (ln(normalized median fluorescence intensity)); higher = stronger DNA binding
In short: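 DNA-binding domains from P. falciparum, fused to GST and produced in E. coli, were put on an Agilent 4 × 180k double-stranded probe array for 1 h in 1× PBS holding 1% milk, 0.2 mg/ml BSA, 0.5% salmon testes DNA and 0.03% Triton X-100. Probes were primer-extended, 36 bp long and drawn from intergenic genomic regions, with negative controls included. After Alexa488 anti-GST antibody detection and a 488 nm scan, binding intensity was set as the highest Masliner-normalised natural-log median intensity across replicate spots of either probe orientation.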

Sequence | gcPBM binding intensity (ln)
AATTCAATTGAGCAAAATTCAAATAAATTAAAAAGA [XGTACX_negctrl_site71] | 9.1
TGATAATATTATATATGTACATATATGTATATTTTT [XGTACX_site7193] | 9.26
ATGAAACACTCCATAGTGCAAAATATATATTATATT | 9.29
CTATTTTTCCTGAAATGTACAAGAATTTTATTTGAT [XGTACX_site8867] | 8.99
TTGGTATATTATAAAAGTACACATAATAAAAAATTT [XGTACX_site7985] | 9.26
ATATGGGTGAACATATGTACATATATATATTGATAA [XGTACX_site8438] | 9.26
TTTTACATAAATTATAAATATATAAAATAAAAAAAA [CACACA_negctrl_site1499] | 9
TTAATATTCCAGCTTTGTACATATATATATTATAAA [XGTACX_site7954] | 9.02
TGGCTTTCCCTGCCGGTGCATTAACATTTTTTACAT [GTGCAC_site9914] | 9.44
TTAATGGAAAAATAGGCACACACACCGATATACATA [CACACA_site8356] | 9.94
CATATATATATTTTTTGTACATATATTTTTACATAT [XGTACX_site8419] | 9.55
AAAAAGAAGAAGAAATGTACGTAACTATATATTTAT [XGTACX_site4362] | 9.41
AATTATTAAATATGTACACACGTACATTTTATAAAT [CACACA_site5341] | 9.25
AGTACATTATAGAATACACACCTATATATATATATA [CACACA_site4447] | 9.45
TATTTTGTTCTTTCCACACACAAATACATATATTGT [CACACA_site4071] | 9.69
TAATACATACACACATGTACATACAGAAATAAATAA [XGTACX_site3245] | 9.62
AATATAAAAATGTTTACACACACACGGAAATATATT [CACACA_site7226] | 10.1
ATGTTGTACAAACACACACACAAAAAAAAAATAAAA [CACACA_site2406] | 9.89
ATATATATATGTGGATGTACATATATCTCTTATTAT [XGTACX_site1748] | 9.27
GGAAAATGAAAACAAGGTACACATAAGAACAAACAA [XGTACX_site1221] | 9.96
AATAGGGTCATTCAAAAAAAAAAAAAATAATAATAC [CACACA_negctrl_site644] | 9.22
AAATTTGCTTTACCAGTGCAAAAAAAAAAAAAAAAA | 8.81
AAATCACATAAAAATAGTACTTTTTTTTTTTTTTTT [XGTACX_site2696] | 9.14

Sequence | gcPBM binding intensity (ln)
TGTTTTTATCCTTATGGTACAGTATAATACTTACAG [XGTACX_site6381] | 9.24
ATTGTAAGGAAACACACACACATATATATGTATATA [CACACA_site676] | 9.98
AAATAAATACTAGGCACACACACATATATATATATA [CACACA_site2079] | 9.87
TATATGTTTAATTTCACACACAAATATGCATTTTAA [CACACA_site7881] | 9.53
ATTATTGTAATATTAGCACACATTACCTCACTACAA [CACACA_site2560] | 9.46
ATTATTCAGGTAAAGTGTACAGGAGAAAAATAAAAT [XGTACX_site334] | 9.67
ATATATATATATATATGTACGTATAATATATATATG [XGTACX_site2212] | 9.33
CGCACCCAAATATATACACACATATATATATATATA [CACACA_site1651] | 9.56
GGAAAATACATTCCAGTGCATTAATTTATTCAACGT | 9.2
TTTTGGATCATTTGTTGTACATATGCAAAAAAAAAA [XGTACX_site3157] | 8.89
AAAAAAATAAAATTATATAAAATAAATTTTTATAAT [GTGCAC_negctrl_site587] | 8.97
TATGATACATAATATACATGCATACACAACATTCAG [TGCATGCA_site487] | 9.39
GATATGTGACGTTTGGTATTTTTGATGTTGGTAGGA [CACACA_negctrl_site1448] | 9.69
TAAAAGAAATATACATGTACATAAATATATATATAT [XGTACX_site1276] | 9.38
TATATTTGGAAATATTCTCAATTGGTACAAATAAAA [CACACA_negctrl_site1202] | 8.94
GCCCAACCAAAATATACACACAGTTGAATGAATAAA [CACACA_site2597] | 9.37
ATTTTTTTGTGTTTGGTACACACGTTATAAAAAATA [CACACA_site1345] | 9.3
TTGGTAATAATTTGAGGTACACTGTATAAATTTTTT [XGTACX_site909] | 9.1
TTTTTTTCTTAAAGATGTACTTTTTTAAAATAATCT [XGTACX_site3663] | 8.85
AATAATAAATTATGGTGTACGCATTTGTATATATAC [XGTACX_site5417] | 9.38
TTTTTTTTTTTTTTGGTGCGTTTATATATAAATATA | 9.07
GGAATTATATGAAATAAACACACATATGTAATATTA [CACACA_site8586] | 9.33
TACATCGACCTATGTACATGCAAATTATTTTTATTT [TGCATGCA_site182] | 9.39

Sequence | gcPBM binding intensity (ln)
AAAATCTAATATAATGCACACATAAAAAAAAAATCA [CACACA_site8871] | 9.49
CTTTTAATATGTGTAGTGCATTTTTTTTTTTTTTTT [GTGCAC_site9727] | 9.39
AAAAAAAAAAAAAACACACACAACACCCATACCTTA [CACACA_site3621] | 9.76
GTCCTTCATCATATTTAACACACAGAGAAAAAGCGG [CACACA_site7979] | 9.49
TTTATATATTATTAATGTACAAAATTTTTATTGCAT [XGTACX_site3329] | 8.94
TAAATACAGAAACACACACACAAATATATACATACA [CACACA_site2880] | 10.1
AATTCTTTTTTCAACACACACACACTAGAAAATATA [CACACA_site5681] | 9.93
ACATTAAGACACATTGCACACGTGCACCCATAGAAA [CACACA_site8029] | 9.43
ACCTGGACAAAAATAAATAAATAAATAAATAAATGA [GTGCAC_negctrl_site238] | 9.19
CATCCTATTACTTGGTGTACTATTTTATATTGAATA [XGTACX_site1050] | 9.58
ATAAATTTATCCAAGTGTACAAAGCTAACATTTTTT [XGTACX_site4399] | 9.28
GTTTATAAAATAAGAAGTACTTTATGAGAACCATAT [XGTACX_site5789] | 9.12
ATAAACAAGACGCAACAAAGTAGAAATTAAAAATAA [CACACA_negctrl_site345] | 9.47
AAAAATGGAATTATCTGTACATATATAGTTTTTAAA [XGTACX_site5580] | 9.07
TGGTACCTTACTTTTACACACTTTTTTTTTTTTTTT [CACACA_site1557] | 9.59
TTTTGAGTAGCCTATTGTACGAACTTTTTAAATACA [XGTACX_site1224] | 9.07
CCATTTTAAATATGCACACAGATGCACTAACACATT [CACACA_site5099] | 9.46
AATATATACGCATGCGCACACACAAGTGGGAAATTT [CACACA_site1786] | 9.7
CACCCATAAATATACACACGCACAACACAAAATAAA [CACACA_site2903] | 9.73
ATATATATATATACATGTACAAATGTATAACAAATG [XGTACX_site145] | 9.3
TTTTTTTACAACATTACACACAAATATTCTGTGTTA [CACACA_site5957] | 9.65
ATATTACAACATTTTATACACACGTGATTATTAATT [CACACA_site2877] | 9.63
AATCGTGTTCTGAATACACACTAATACAAATTTGTA [CACACA_site6058] | 9.34

Sequence | gcPBM binding intensity (ln)
AACAAAAATAATAATCAAATAAATAAATGAAAACAT [CACACA_negctrl_site456] | 9.58
AGAAAATTAAAAAGAACACACAAATATATATATAAT [CACACA_site5896] | 9.81
AACATTTTAAAACAGACACACACCAAAAAAAAAAAA [CACACA_site257] | 9.68
AAATGAAAATAAAGCAACAGAAATATAATGTATTAT [GTGCAC_negctrl_site508] | 9.7
AGGCACGTGTTATATACACACATAATCAAATAAACT [CACACA_site7852] | 9.6
TTATGTCATAAATGCACACATATATATATACATATA [CACACA_site1588] | 9.38
AAAATAATAACATTGTGTACATAAAAAGAAAACCTT [XGTACX_site840] | 9.56
ACATTTTATACGATAAAATGTATAAGATTATGAAGA [TGCATGCA_negctrl_site476] | 9.08
TATGAATGGTTAAGTACACACATATTAATATATGTA [CACACA_site3490] | 9.4
CTATCTACATAAACGTGTACCCACAAATAAATAAAT [XGTACX_site5210] | 9.3
TTTTTTAAAAAAGTTTTCTGTATTTATATATATATA [CACACA_negctrl_site31] | 9.07
TTAACCTTTTGATATTGTACCCATAATCTAATACAA [XGTACX_site769] | 9.17
TCATATGTATAAATTAGTACATATTTAATGGATATA [XGTACX_site3298] | 9.08
GATATAATGTGTTTGGTATTCTTGATAGATAGTTTT [CACACA_negctrl_site1711] | 9.57
ACATACATACACCCACGTACGTACCGAAACACCACC [XGTACX_site1212] | 9.51
ATGATGTCTTTATATTGTACATATATGAAGACGTTA [XGTACX_site7751] | 9.04
TTTCTTTTTTTTTTTGTATATTAAATCTAAAAAGGA [TGCATGCA_negctrl_site431] | 8.82
ACTTCAAAAATAAACTGTACGTAAAAAAAAAAAAAA [XGTACX_site795] | 9.02
TTTAAATAAAATATTACACACTTAGAAAAATATATA [CACACA_site3663] | 9.32
TTTCGTAAAATGAAATGTACTCAAAAGTAAATATAA [XGTACX_site214] | 9.03
